Results from PubChem BioAssay AID504832 (National Center for Advancing Translational Sciences (NCATS), 2011).
Hit rate of the full screen: of about 310,000 compounds, about 18,000 (5.8%) were called active. This list was built around the results that the source calls inconclusive (neither active nor inactive); the mix of calls is not that of the screen. The call rests on the fitted dose curve; in most records, active means well fitted inhibition curve with a large enough effect; inconclusive means small, poorly fitted or top-dose-only effect, or another doubt; inactive means no such curve, though single readings can be large or run the other way. No potency is given beside an inconclusive call; the fits are too rough.
Potency means the concentration at half of the fitted maximal effect; tags describe the fitted curve by direction and shape.

Test: Primary qHTS for delayed death inhibitors of the malarial parasite plastid, 48 hour incubation
Conditions: P. falciparum luciferase growth in erythrocytes; series mostly up to 28.7 µM
Summary of the method: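 In quantitative HTS format, infected erythrocytes bearing luciferase-reporter parasites were treated for a single generation at 37 C. Luminescence after adding detection reagent served as the growth measure.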
With Cc1ccc(S(=O)(=O)/C(C#N)=C/c2c(N3CCC(C(N)=O)CC3)nc3ccccn3c2=O)cc1 the Potency was “inactive”. For COc1cc(/C=N/c2oc(C)c(C)c2C#N)cc(Br)c1O, the Potency was “inactive”. With O=C(O)CCC(=O)N1CCN(c2nc(-c3ccccc3Cl)c3cc(Br)ccc3n2)CC1 the Potency was inconclusive [inhibitor, full curve, poor fit]. In the case of Cc1ccc(C2CC2c2n[nH]c(=S)n2-c2ccc(C)cc2)cc1 (stereo not given), the Potency is reported as “inactive”. For CCCCCOC(=O)C1[C@H]2C(=O)N(c3ccccc3CC)C[C@]23C=C[C@H]1O3 (stereo not given in full), the Potency was inconclusive [inhibitor, single point]. In the case of Cc1ccc(-c2[nH]ncc2/C=N/n2c(COc3ccccc3)nc3ccccc3c2=O)cc1, the Potency is reported as active: 11.7 µM. With [N-]=[N+]=N[C@@H](CCN1CC[C@H](O)CCC1=O)c1ccccc1 the Potency was inconclusive [inhibitor, full curve, poor fit]. With Cn1ncc2c(Nc3ccc(O)cc3)nc(Cl)nc21 the Potency was “inactive”. In the case of O=C(Cc1ccc(Cl)cc1)c1c[nH]c(C(=O)NCCCN2CCOCC2)c1, the Potency is reported as inconclusive [inhibitor, partial curve, poor fit]. In the case of CC1CCCN(C(=O)Cn2c(=O)oc3cc(S(=O)(=O)N4CCCCC4)ccc32)C1 (stereo not given), the Potency is reported as active: 1.31 µM. With CC(C)c1ccc(CCNC(=O)c2ccc([N+](=O)[O-])cc2)cc1 the Potency was inconclusive [inhibitor, single point]. With O=C(c1cccc(N2C(=O)C3C4C=CC(C4)C3C2=O)c1)N1CCCc2ccccc21 (stereo not given) the Potency was inconclusive [inhibitor, partial curve, poor fit]. With CC(NC(=O)CN1CCN(S(=O)(=O)c2ccc(Br)cc2)CC1)c1ccccc1 (stereo not given) the Potency was inconclusive [inhibitor, single point]. For O=C(CSc1nc2c(oc3ccccc32)c(=O)n1CC1CCCO1)NCc1ccc(F)cc1 (stereo not given), the Potency was inconclusive [inhibitor, single point]. With Cc1cccc(N2CCN(C(=O)c3cccc(S(=O)(=O)N4CCOCC4)c3)CC2)c1C the Potency was inconclusive [inhibitor, single point]. With Cc1cc(C)nc(SCc2cn3c(C)cc(C)nc3n2)n1 the Potency was inconclusive [inhibitor, single point]. In the case of CC(=O)c1ccc(N/N=C2/CCCNC2=O)cc1, the Potency is reported as inconclusive [inhibitor, partial curve]. For CCN(CC)S(=O)(=O)c1ccc(S(=O)(=O)N2CCC(N3CCCCC3)CC2)cc1, the Potency was “inactive”. In the case of CCC1=Nc2cc(C(=O)NCc3ccco3)ccc2Sc2ccc(C)cc21, the Potency is reported as active: 1.31 µM. For CCOc1ccc(C2c3[nH]c4ccccc4c3CCN2C(=O)Cn2cncn2)cc1 (stereo not given), the Potency was inconclusive [inhibitor, partial curve, poor fit]. With COc1ccc(CCC(=O)Nc2ccc(Cl)c(S(=O)(=O)N3CCCC3)c2)cc1 the Potency was active: 9.28 µM. In the case of S=C(NCCNCc1ccccc1)NC1CCCCC1, the Potency is reported as inconclusive [inhibitor, single point]. In the case of O=C(OCc1nnc(-c2ccccc2)o1)c1ccc(Br)o1, the Potency is reported as “inactive”. In the case of OCCC1CN(C/C(Cl)=C/c2ccccc2)CCN1C1CCCC1 (stereo not given), the Potency is reported as inconclusive [inhibitor, single point]. For CN(C)c1ccc(/C=C/c2cc[n+](C)c3ccccc23)cc1, the Potency was active: 1.04 µM. For CCN(CC)C(=O)CSc1ncnc2c1cnn2Cc1ccccc1, the Potency was inconclusive [inhibitor, partial curve, poor fit]. In the case of CCN(CC)CCC(=O)N1c2ccccc2CCc2ccc(NC(=O)OC(C)C)cc21, the Potency is reported as inconclusive [inhibitor, full curve, poor fit]. With COc1ccccc1NC(=S)NC1CCCCCCCCCCC1 the Potency was active: 1.47 µM. In the case of CCc1noc(C)c1C(=O)N1CCCSC1=Nc1ccccc1C(C)C, the Potency is reported as active: 14.7 µM. In the case of COc1cc(-c2nc(C)c(C(C)=O)n2O)ccc1OCC(=O)Nc1ccc(Cl)cc1, the Potency is reported as inconclusive [inhibitor, single point]. In the case of O=C(c1cccs1)N1CCCC(c2nc3c(nnn3Cc3c(Cl)cccc3Cl)c(=O)[nH]2)C1 (stereo not given), the Potency is reported as active: 13.1 µM. In the case of COc1ccc(C2CC(c3ccc(Cl)cc3Cl)Nc3nc(N)nn32)cc1OC (stereo not given), the Potency is reported as inconclusive [inhibitor, partial curve]. With CCCOc1ccc(/C(O)=C2/C(=O)C(=O)N(CCCn3ccnc3)C2c2cccs2)cc1 (stereo not given) the Potency was “inactive”. For O=C(Oc1ccc(F)cc1)c1ccc2c(=O)n3c(nc2c1)CCC3, the Potency was “inactive”. For O=C(c1ccc([N+](=O)[O-])s1)N1CCc2ccccc21, the Potency was inconclusive [inhibitor, partial curve]. With O=C(Nc1nccs1)c1ccc(N2C(=O)[C@@H]3[C@H](C2=O)[C@H]2C=C[C@@H]3C2)cc1 the Potency was inconclusive [inhibitor, partial curve, poor fit]. In the case of C=CCOC(=O)C1=C(C)NC(SCC(=O)OCC)=C(C#N)C1c1ccc(O)c(OC)c1 (stereo not given), the Potency is reported as inconclusive [inhibitor, partial curve]. For COCCNC(=O)CCn1c(=O)oc2ccccc21, the Potency was “inactive”. In the case of Cc1ccnc(N/C=C(\C#N)c2nc(-c3cccc(Br)c3)cs2)c1, the Potency is reported as active: 11.7 µM. With COc1ccc2c(c1)CCc1c(C(=O)N3CCCc4ccccc43)noc1-2 the Potency was active: 6.57 µM. With COC(=O)C1=C(C)NC2=C(C(=O)CC(C)(C)C2)C1c1ccsc1 (stereo not given) the Potency was inconclusive [inhibitor, single point]. With CCCc1nc2ccc(NC(C)=O)cc2c(=O)n1Cc1ccc(Cl)cc1 the Potency was “inactive”. With O=C(O)c1ccccc1-c1ccccc1C(=O)Nc1ccccc1-c1ccccc1 the Potency was “inactive”. With Cc1cccc(NC(=O)C(C)SCc2nc3sc4c(c3c(=O)[nH]2)CCCC4)n1 (stereo not given) the Potency was inconclusive [inhibitor, single point]. In the case of Cc1ccc(C)c(NC(NC(=O)c2ccccn2)C(Cl)(Cl)Cl)c1 (stereo not given), the Potency is reported as “inactive”.
